#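 48-hour exposure; five concentrations; linearly interpolated endpoints. Here, GI50 denotes the concentration required for 50% inhibition of growth.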 The source made the active and inactive calls. Rule as the data show it: active = GI50 up to about 1.1 µM and inactive = higher.
# System: NCI-H322M
# Assay: NCI-60 cell line screen, 48 h
row,Structure (SMILES),GI50
1,CC(C)(C)OC(=O)NCCCCC1NC(=O)[C@@H]2Cc3c([nH]c4ccccc34)C(C3CCCCC3)N2C1=O (some centres undefined),inactive: 64 µM
2,O=C(NN=C1CCCCC1)Nc1ccccc1Cl,inactive: 76.9 µM
3,CCOc1cc2c(cc1O)/C(=N\O)C[C@@H]1[C@@H]2CC[C@]2(C)[C@@H](O)CC[C@@H]12,active: < 0.0261 µM
4,Cc1c(CCCl)c(Cl)n2c(nc3ccccc32)c1C#N,inactive: 1.46 µM
5,O=C(C=P(c1ccccc1)(c1ccccc1)c1ccccc1)c1ccccc1-c1ccccc1C(=O)C=P(c1ccccc1)(c1ccccc1)c1ccccc1,active: 0.0296 µM
6,O=C1/C(=C/c2ccccc2)CCc2ccc(Cl)nc21,inactive: 17.4 µM
7,COc1cccc2c1C(=O)C(=O)c1c-2oc(=O)c2cc(C)cc(OC)c12,inactive: 69.2 µM
8,CC(C)c1cccc(C(C)C)c1/N=C(/N)C#N,inactive: > 100 µM
9,Cc1ccc2c(c1)[nH]c(=S)n2C=C(C(N)=O)C(N)=O,inactive: > 100 µM
10,CCN(CC)CCCn1c(=O)c2ccccc2n2c3c(=O)n(C)c(=O)n(C)c3nc12,inactive: 6.44 µM
11,CC1(C)OCC(C2CCC3(C)C4=CCC5C(C)(C)C(O)CCC5(C)C4CCC23C)CC(O)C1O (centres undefined),inactive: 16.9 µM
12,Cc1cc(C)c2c(c1)C/C(=C\c1ccccc1C(=O)O)C2=O,inactive: > 10 µM
13,Cc1c(C#N)c2nnn(-c3ccccc3)c(=O)n2c1-c1ccccc1,inactive: 3.35 µM
14,O=C1CC(Br)c2c(Cl)sc(Cl)c21 (centres undefined),inactive: 15.3 µM
15,CCOc1c(OC)cc(-c2nc3n(n2)C(=O)C(CC)S3)cc1OC (centres undefined),inactive: > 10 µM
16,O=c1[nH]c(N/N=C\C(O)C(O)C(O)CO)nc2ccccc12 (centres undefined),inactive: > 100 µM
17,CC(C)CCCC(C)[C@H]1CC[C@H]2NCCCC[C@]12C (some centres undefined),inactive: 3.87 µM
18,NS(=O)(=O)c1ccc(Nc2c3ccccc3nc3c(C(=O)NCCO)cccc23)cc1,active: 0.193 µM
19,Cc1cc(S(=O)(=O)Nc2nc(N)nc(N(C)C)n2)c(SC(C(=O)O)c2ccccc2)cc1Cl (centres undefined),inactive: > 10 µM
20,CC(C)(C)c1cc(Oc2ccc(C#N)c(C#N)c2)cc(C(C)(C)C)c1,inactive: > 100 µM
21,CN(C(=O)Cc1ccccc1)n1cn[n+](CC(=O)OC(C)(C)C)c1,inactive: > 10 µM
22,C/C(=N\c1cc(Cl)cc(Cl)c1)c1ccncc1,inactive: 1.89 µM

row,Structure (SMILES),GI50
1,CCCCCCCCCOCC(COP(=O)([O-])OCC[N+](C)(C)C)OC (centres undefined),inactive: > 100 µM
2,NCCN(CCN(C(=O)Nc1ccccc1)c1ccccc1)C(=O)Nc1ccccc1,inactive: 24.8 µM
3,COc1ccc(/C=C2\CCC(C)C3=C(c4ccc(OC)c(OC)c4)C(C#N)=C(N)OC32)cc1OC (centres undefined),inactive: 4.35 µM
4,O=C(O)C1=C(Cl)c2ccccc2S1(=O)=O,inactive: > 100 µM
5,C=CCNC(=O)NCCCCC(NC(C)=O)C(=O)NCc1ccccc1 (centres undefined),inactive: > 100 µM
6,O=C(CNc1nccs1)Nn1cnc2ccc(S(=O)(=O)Nc3nccs3)cc2c1=O,inactive: > 100 µM
7,CN(C)c1ccc(C(=N/N=C2\C(=O)Nc3ccccc32)c2ccc(N(C)C)cc2)cc1,inactive: 3.82 µM
8,COc1ccc(-[n+]2nc(S(=O)(=O)O)c(/C=C/c3ccc(N(C)C)cc3)cc2C#N)cc1,inactive: > 100 µM
9,Cc1ccc(-c2nc(-c3cnccn3)n(C3OC(CO)C(O)C(O)C3O)n2)cc1 (centres undefined),inactive: > 100 µM
10,CCC(C(=O)C(=O)OC)P1(=O)OC(C)(C)CN1C(C)(C)C (centres undefined),inactive: > 100 µM
11,Cc1ccccc1OC(C)C(=O)NN1C(=O)CSC1c1ccccc1 (centres undefined),inactive: 84.7 µM
12,COC(=O)Cc1cc(=O)n2c3ccccc3n(C)c2c1C#N,inactive: > 100 µM
13,N#Cc1c(C#N)c(-c2ccco2)n(-c2ccccc2)c1N,inactive: > 100 µM
14,COC(=O)C(=O)Cc1nc2ccccc2s1,inactive: > 100 µM
15,CN(C)C(=O)C(F)(F)C(c1ccccc1)C1C(=O)N(C)C(=O)N(C)C1=O (centres undefined),inactive: > 100 µM
16,C/C(=N\NC(=O)c1cccnc1)c1cccc(/C(C)=N/NC(=O)c2cccnc2)n1,inactive: 3.67 µM
17,CCC(C)NC(=S)N/N=C(\C)c1nc2cccnc2[nH]1 (centres undefined),inactive: 10.3 µM
18,Cc1cccc(-n2c(C)nc3ccc(NC4OC(CO)C(O)C(O)C4O)cc3c2=O)c1 (centres undefined),inactive: > 100 µM
19,CC(=O)COC(=O)CC(C)=O,inactive: > 100 µM
20,CCOC(OC(C)=O)[C@@H]1C=C[C@H](C)N(c2ccc([N+](=O)[O-])cc2)O1 (some centres undefined),inactive: 17.5 µM
21,COc1ccc(C2C3=C(N=C4SC(C(C)=O)=C(C)N42)c2ccccc2CC3)cc1 (centres undefined),inactive: > 100 µM
22,COC(=O)[C@H](Cc1c[nH]c2ccccc12)NC(=O)c1ccc(CNC(=O)/C=C/c2cccc(Oc3ccccc3)c2)cc1,inactive: > 100 µM
